Reference: PubChem BioAssay AID1634 (National Center for Advancing Translational Sciences (NCATS), 2009)
In all, about 260,000 compounds went through this assay and about 150 (0.058%) were called active. Inconclusive means that the source gave no clear call. Such entries were picked first, then a sample of the others. The call rests on the fitted dose curve; in most records, active means well fitted inhibition curve with a large enough effect; inconclusive means small, poorly fitted or top-dose-only effect; inactive means no such curve, though single readings can be large or run the other way. No potency is given beside an inconclusive call; the fits are too rough.

target: Pyruvate kinase PKM (Homo sapiens) (UniProt P14618); assay: qHTS Assay for Inhibitors of Human Muscle isoform 2 Pyruvate Kinase; settings: purified PKM2, ATP generation, Kinase-Glo luminescence; series mostly up to 57.5 µM; further: nearly all actives have a fitted effect of over 60% in size
Sequence of UniProt P14618 (P14618 whole entry, looked up, canonical isoform): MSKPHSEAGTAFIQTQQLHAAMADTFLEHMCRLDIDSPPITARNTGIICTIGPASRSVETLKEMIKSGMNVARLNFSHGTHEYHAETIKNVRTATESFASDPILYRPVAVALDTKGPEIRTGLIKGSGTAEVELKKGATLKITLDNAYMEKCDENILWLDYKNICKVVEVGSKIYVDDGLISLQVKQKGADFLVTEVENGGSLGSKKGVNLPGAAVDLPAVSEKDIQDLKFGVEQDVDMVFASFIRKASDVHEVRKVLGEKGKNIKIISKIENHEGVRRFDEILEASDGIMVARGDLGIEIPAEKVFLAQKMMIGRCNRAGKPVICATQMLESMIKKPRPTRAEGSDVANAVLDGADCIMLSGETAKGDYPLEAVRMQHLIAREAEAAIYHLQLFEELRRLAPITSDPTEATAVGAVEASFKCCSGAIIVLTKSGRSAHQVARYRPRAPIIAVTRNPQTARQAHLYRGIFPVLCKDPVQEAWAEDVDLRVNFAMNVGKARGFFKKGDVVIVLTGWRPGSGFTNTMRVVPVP
How it was run: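 Enzyme run at intermediate activity with final 0.1 mM ADP, 0.5 mM PEP (50 mM imidazole pH7.2, 50 mM KCl, 7 mM MgCl2), incubated 1 h at r.t. ATP formed read by Kinase-Glo luminescence, normalized to no-enzyme (full inhibition) and uninhibited wells.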
Potency means the concentration at half of the fitted maximal effect; tags describe the fitted curve by direction and shape.

Structure (SMILES) | Potency
COc1ccc(C(=O)c2cc3ccc(O)cc3oc2=O)cc1 | inconclusive [falling, partial curve]
CSc1cccc(NS(=O)(=O)c2ccc3c(c2)oc(=O)n3C)c1 | inactive
CC(=O)c1ccc(S(=O)(=O)N2CCN(C(=O)CSc3ccc(C)c(C)c3)CC2)cc1 | inactive
Cc1ccc(S(=O)(=O)N2CCCCC2)cc1NC(=O)CSc1nnc(N)s1 | inconclusive [falling, single point]
O=C(CN1C(=O)/C(=C2\SC(=S)N(CCS(=O)(=O)O)C2=O)c2ccccc21)Nc1cccc(Br)c1 | inactive
CC(=O)C1=C(S(=O)(=O)c2ccc(C)cc2)CS(=O)(=O)C1 | inactive
CCN(CC)S(=O)(=O)c1ccc(/C=C/C(=O)Nc2c(C)n(C)n(-c3ccccc3)c2=O)cc1 | inconclusive [falling, single point]
Nc1cccc(S(=O)(=O)Nc2ccc(SC(F)F)cc2)c1 | inactive
Cc1cccn2cc(-c3c[nH]c4ccccc34)nc12 | inconclusive [falling, partial curve]
Cn1c(=O)oc2cc(S(=O)(=O)Nc3cccc4c3CCCC4)ccc21 | inactive
CCOc1ccccc1NC(=S)NCCc1ccc(F)cc1 | inconclusive [falling, full curve]
Cn1c(-c2ccc(N)cc2)nc2ccccc21 | inconclusive [falling, single point]
O=C(c1ccccc1)c1nnc(-c2ccccc2F)o1 | inconclusive [falling, partial curve]
O=C1c2ccccc2C(=O)N1Cc1ccc2c(c1)OCO2 | inactive
Cc1cc(C)n2nc(SCc3cc(=O)oc4ccc5ccccc5c34)nc2n1 | inactive
COC(=O)Cc1ccc2sc(-c3ccccc3)nc2c1 | inconclusive [falling, partial curve]
O=C(NCCc1nc2ccc(Cl)cc2[nH]1)C1CCC(=O)N(Cc2cccc(F)c2)C1 (centres undefined) | inactive
COc1ccc(-c2oc3cc(O)c(OC)c(O)c3c(=O)c2OC)cc1 | inconclusive [falling, partial curve]
Clc1ncccc1-c1nnn(-c2ccccc2)n1 | inconclusive [falling, single point]
O=C(CCC(=O)N1CCN(S(=O)(=O)c2ccc3ccccc3c2)CC1)NCC(F)(F)F | inactive
CCc1nnc(NS(=O)(=O)c2ccc(NS(=O)(=O)c3ccccc3)cc2)s1 | inactive
Cc1cc(N2CCN(C)CC2)nc2ccc(NC(=S)N3CCN(c4ccc(Cl)cc4)CC3)cc12 | inconclusive [falling, partial curve]
COc1cccc(NC(=O)CN(C2=NC3CS(=O)(=O)CC3S2)c2cccc(C)c2)c1 (centres undefined) | inactive
COc1ccc(OCc2n[nH]c(=S)n2N)cc1 | inconclusive [falling, single point]
O=C(CCCSc1nc2ccccc2c(=O)[nH]1)c1ccccc1 | inconclusive [falling, single point]

Structure (SMILES) | Potency
O=[N+]([O-])c1cccc(COc2ncnc3cc([N+](=O)[O-])ccc23)c1 | inactive
NC1=NC(c2cn[nH]c2-c2ccc(F)cc2)n2c(nc3ccccc32)N1 (centres undefined) | inconclusive [falling, single point]
O=C(Nc1ccccc1)c1nc2ccccc2s1 | inconclusive [falling, single point]
Cc1ccc(C2CC(c3ccccc3)=NN2C(=S)Nc2ccccc2)o1 (centres undefined) | inactive
Cc1ccc(C2/C(=C(\O)c3ccc4c(c3)OCCO4)C(=O)C(=O)N2CCCN(C)C)o1 (centres undefined) | inactive
CCCCOC(=O)c1ccc(NC(=O)c2cnc3n(c2=O)CCS3)cc1 | inconclusive [falling, single point]
O=C(CN1CCC(n2nnc3cc(F)ccc32)CC1)N1CCCc2ccccc21 | inconclusive [falling, full curve]
CCOc1ccc(OCC(=O)Nc2nccs2)cc1 | active: 10 µM
O=C(Cc1ccc2c(c1)OCCO2)N1CCN(S(=O)(=O)c2cccc(Cl)c2Cl)CC1 | inactive
Cc1ccc(C(=O)Oc2oc(-c3ccco3)nc2C=Nc2ccccc2)cc1 | inconclusive [falling, single point]
O=C(Nc1ccccc1F)c1ccc2c(c1)OCO2 | inconclusive [falling, single point]
Cc1nnc(SCC2=C(C(=O)O)N3C(=O)C(NC(=O)Cn4nc(C)c(Cl)c4C)C3SC2)s1 (centres undefined) | inactive
COc1ccc(C)cc1NC(=O)CNC(C)C(=O)Nc1cc(Cl)ccc1Cl (centres undefined) | inconclusive [falling, single point]
CCOc1ccc(/C=N/NC(=O)c2[nH]ncc2Br)c(O)c1 | inconclusive [falling, single point]
O=C(/C=C/c1ccco1)N(Cc1ccc(Cl)cc1)C1CCS(=O)(=O)C1 (centres undefined) | inactive
O=C(C[n+]1cccc(O)c1)Nc1ccc(Br)cc1 | inconclusive [falling, single point]
COc1ccccc1NS(=O)(=O)c1cc(NC(=O)c2[nH]c(C)c(C(C)=O)c2C)ccc1N1CCOCC1 | inactive
CN(C)c1ccc(/C=C/C=C2/SC(=S)N(c3ccccc3)C2=O)cc1 | inconclusive [falling, partial curve]
COc1ccc(-c2ccc(=O)n(CC(=O)Nc3cccc(O)c3)n2)cc1OC | inactive
O=[N+]([O-])c1cc2c(c(CSc3nnnn3-c3ccc(O)cc3)c1)OCOC2 | inactive
CCOc1c(O)ccc(/C=C2\SC(=S)NC2=O)c1[N+](=O)[O-] | inconclusive [falling, single point]
Cc1nc2cc(NCc3ccccc3O)ccc2n1Cc1ccccc1 | inactive
COc1cc(C(=O)N(Cc2ccccn2)CC2CCCO2)cc(OC)c1OC (centres undefined) | inconclusive [falling, full curve, poor fit]
Cc1cnc(NC(=O)c2ccccn2)s1 | inconclusive [falling, partial curve]
